Experimental data published in PMC8766471, “Mutations affecting the N-terminal domains of SHANK3 point to different pathomechanisms in neurodevelopmental disorders” (Scientific Reports, 2022).
Where two headings read alike, the source gives them in different places. Results are given in words; binding and its absence hold for the method and conditions named. Binding seen in cells or lysates may run through a third protein. Some binding calls cover weakened binding; strength is not graded here. For some of these results: Tags and fused reporters may be left off the sequences shown. One block for each molecule: values may come before it.

Chains of the proteins cited; added tags and fusions are not shown. Lines headed by an entry give the natural chain unless they say otherwise; changes in a name come on top. A line that says so, or that is headed by a name, gives the form on record, which may keep a tag or linker. Residues count along the entry.
UniProt Q9JLU4: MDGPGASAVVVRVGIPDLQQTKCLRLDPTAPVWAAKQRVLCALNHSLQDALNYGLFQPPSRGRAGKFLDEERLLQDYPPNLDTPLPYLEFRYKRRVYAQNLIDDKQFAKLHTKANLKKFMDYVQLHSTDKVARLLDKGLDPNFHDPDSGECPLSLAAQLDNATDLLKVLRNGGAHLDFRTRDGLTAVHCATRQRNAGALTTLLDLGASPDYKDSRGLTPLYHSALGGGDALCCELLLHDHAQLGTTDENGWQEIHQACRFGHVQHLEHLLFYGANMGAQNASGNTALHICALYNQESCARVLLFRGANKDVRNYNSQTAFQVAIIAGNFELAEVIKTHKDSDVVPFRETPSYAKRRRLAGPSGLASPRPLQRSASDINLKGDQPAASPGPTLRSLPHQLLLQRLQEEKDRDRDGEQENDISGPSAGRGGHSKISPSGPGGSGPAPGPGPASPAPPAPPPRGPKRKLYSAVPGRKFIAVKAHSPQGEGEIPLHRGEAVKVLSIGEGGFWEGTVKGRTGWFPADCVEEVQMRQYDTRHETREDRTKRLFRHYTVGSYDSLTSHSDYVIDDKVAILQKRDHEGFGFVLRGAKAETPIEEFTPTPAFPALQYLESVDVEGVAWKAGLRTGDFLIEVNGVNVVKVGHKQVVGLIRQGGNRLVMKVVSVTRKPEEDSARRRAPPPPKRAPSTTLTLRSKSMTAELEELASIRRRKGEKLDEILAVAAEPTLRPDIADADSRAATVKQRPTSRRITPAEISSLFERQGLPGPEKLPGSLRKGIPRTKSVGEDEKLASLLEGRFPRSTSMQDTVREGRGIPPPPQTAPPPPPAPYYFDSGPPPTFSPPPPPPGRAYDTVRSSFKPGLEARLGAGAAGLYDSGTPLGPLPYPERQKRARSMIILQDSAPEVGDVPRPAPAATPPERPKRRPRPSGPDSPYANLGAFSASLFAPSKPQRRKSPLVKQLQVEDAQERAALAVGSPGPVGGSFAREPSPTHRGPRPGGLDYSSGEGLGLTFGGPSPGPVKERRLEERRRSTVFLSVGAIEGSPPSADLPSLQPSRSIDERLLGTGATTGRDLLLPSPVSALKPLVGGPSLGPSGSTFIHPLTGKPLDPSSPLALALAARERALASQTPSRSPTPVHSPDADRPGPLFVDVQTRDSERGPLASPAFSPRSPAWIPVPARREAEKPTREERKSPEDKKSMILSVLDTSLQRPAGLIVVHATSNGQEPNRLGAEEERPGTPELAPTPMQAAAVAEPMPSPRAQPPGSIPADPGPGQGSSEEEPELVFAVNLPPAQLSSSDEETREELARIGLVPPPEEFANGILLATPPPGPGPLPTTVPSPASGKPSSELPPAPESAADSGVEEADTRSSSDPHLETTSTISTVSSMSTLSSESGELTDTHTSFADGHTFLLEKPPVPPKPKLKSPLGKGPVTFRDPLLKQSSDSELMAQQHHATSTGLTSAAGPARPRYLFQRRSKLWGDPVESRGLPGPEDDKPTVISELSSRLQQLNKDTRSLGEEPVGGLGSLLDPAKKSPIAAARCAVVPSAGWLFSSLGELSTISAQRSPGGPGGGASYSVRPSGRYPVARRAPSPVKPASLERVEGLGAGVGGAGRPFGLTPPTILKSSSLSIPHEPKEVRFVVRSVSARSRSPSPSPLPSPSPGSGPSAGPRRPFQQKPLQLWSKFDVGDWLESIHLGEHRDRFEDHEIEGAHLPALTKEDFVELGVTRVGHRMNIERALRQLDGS
Shank3 N-terminus (residues 1-339) Q106P, mRFP-tagged (Q9JLU4, form named): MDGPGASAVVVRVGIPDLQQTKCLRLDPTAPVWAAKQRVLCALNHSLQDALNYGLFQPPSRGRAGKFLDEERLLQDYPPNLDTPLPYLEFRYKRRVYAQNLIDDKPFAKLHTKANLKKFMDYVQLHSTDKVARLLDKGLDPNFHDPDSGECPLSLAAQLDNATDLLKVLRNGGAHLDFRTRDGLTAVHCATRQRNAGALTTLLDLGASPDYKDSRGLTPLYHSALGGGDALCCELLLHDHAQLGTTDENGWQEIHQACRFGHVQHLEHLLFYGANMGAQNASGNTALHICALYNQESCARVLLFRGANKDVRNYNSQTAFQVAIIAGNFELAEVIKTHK
Shank3 N-terminus (residues 1-339) N52R, mRFP-tagged (Q9JLU4, form named): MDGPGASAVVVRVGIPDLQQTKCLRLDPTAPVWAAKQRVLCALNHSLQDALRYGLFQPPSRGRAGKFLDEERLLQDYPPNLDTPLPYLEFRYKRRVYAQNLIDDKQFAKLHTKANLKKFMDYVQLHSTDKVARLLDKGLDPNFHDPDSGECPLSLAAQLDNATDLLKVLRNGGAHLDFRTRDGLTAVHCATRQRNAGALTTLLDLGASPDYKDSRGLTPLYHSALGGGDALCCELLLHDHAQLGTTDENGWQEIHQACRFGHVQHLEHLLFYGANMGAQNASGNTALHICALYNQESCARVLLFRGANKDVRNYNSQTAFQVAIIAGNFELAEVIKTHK
Shank3 N-terminus (residues 1-339) Q317R, mRFP-tagged (Q9JLU4, form named): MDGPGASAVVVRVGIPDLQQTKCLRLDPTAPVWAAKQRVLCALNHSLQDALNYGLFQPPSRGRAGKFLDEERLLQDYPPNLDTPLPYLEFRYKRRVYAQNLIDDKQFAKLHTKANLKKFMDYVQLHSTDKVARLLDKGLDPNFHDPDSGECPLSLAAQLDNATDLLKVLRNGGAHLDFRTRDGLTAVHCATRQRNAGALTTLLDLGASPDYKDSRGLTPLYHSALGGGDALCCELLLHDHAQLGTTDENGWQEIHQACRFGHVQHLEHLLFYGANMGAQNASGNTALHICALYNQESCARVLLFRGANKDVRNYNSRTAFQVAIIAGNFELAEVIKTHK
Shank3 N-terminus (residues 1-339) L68P, mRFP-tagged (Q9JLU4, form named): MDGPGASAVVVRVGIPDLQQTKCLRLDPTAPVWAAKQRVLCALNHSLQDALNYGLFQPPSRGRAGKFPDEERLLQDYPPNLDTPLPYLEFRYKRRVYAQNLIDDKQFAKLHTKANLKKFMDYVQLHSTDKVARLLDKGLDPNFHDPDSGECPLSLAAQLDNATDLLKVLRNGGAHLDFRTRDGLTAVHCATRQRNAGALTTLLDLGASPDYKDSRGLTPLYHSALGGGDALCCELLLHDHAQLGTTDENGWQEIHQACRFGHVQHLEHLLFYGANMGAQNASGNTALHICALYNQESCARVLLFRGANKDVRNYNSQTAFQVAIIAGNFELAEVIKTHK
Shank3 N-terminus (residues 1-339) G250C, mRFP-tagged (Q9JLU4, form named): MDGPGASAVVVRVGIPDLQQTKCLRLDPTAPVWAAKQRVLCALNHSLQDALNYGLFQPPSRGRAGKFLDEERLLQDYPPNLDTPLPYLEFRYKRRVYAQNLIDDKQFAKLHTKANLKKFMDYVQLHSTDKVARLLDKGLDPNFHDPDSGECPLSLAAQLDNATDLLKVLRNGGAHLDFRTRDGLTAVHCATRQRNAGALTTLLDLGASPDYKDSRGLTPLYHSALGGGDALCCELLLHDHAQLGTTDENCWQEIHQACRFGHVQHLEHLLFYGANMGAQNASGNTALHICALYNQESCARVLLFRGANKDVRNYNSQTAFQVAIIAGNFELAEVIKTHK
Shank3 N-terminus (residues 1-339) T337S, mRFP-tagged (Q9JLU4, form named): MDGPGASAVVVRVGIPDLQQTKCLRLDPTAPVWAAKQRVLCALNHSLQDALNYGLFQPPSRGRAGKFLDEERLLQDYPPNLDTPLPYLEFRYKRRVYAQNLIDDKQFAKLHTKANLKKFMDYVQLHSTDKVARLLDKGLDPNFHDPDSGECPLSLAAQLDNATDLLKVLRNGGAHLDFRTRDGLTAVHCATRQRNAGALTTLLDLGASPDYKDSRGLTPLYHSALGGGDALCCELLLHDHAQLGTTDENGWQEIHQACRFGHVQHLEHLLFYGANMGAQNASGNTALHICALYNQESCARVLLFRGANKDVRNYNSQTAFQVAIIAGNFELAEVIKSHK
Shank3 N-terminus (residues 1-339) Q256H, mRFP-tagged (Q9JLU4, form named): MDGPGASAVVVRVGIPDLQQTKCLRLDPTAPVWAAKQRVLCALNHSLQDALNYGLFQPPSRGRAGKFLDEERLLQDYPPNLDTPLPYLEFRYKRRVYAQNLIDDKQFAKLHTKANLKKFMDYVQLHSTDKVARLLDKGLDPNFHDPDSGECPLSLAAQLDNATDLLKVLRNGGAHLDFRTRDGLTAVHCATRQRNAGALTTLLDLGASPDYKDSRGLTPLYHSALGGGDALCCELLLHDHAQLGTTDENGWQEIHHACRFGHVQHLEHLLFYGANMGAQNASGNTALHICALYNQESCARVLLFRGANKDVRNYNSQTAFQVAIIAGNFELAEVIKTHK
Shank3 N-terminus (residues 1-339) L270M, mRFP-tagged (Q9JLU4, form named): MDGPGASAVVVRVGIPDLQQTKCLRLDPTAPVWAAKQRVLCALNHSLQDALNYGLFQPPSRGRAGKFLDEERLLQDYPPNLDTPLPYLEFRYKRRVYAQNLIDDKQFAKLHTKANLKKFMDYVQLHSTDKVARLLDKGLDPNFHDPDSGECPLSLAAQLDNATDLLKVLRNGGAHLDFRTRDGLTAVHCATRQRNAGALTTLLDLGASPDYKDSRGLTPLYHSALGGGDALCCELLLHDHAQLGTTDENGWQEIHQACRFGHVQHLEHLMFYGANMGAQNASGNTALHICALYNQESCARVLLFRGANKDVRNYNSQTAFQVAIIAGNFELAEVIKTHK
Shank3 N-terminus (residues 1-339) Y272C, mRFP-tagged (Q9JLU4, form named): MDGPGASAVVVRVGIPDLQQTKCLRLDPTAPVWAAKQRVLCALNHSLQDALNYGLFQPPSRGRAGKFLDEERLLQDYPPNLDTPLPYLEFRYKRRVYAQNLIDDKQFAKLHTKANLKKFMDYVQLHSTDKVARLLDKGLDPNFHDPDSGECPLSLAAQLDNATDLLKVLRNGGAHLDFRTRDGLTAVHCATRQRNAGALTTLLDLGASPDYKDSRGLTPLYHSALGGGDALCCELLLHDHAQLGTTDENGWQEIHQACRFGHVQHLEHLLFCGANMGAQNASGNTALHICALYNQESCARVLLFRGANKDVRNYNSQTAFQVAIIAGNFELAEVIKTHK
Shank3 N-terminus (residues 1-339) D69G, mRFP-tagged (Q9JLU4, form named): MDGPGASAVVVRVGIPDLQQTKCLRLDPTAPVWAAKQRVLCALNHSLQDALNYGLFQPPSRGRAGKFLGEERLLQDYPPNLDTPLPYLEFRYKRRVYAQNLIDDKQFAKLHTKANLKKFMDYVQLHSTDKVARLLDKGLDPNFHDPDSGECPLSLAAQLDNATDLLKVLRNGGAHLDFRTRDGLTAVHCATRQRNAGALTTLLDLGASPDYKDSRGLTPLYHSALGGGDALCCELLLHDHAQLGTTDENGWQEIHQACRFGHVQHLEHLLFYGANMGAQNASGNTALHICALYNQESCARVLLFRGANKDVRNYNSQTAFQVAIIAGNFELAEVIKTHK
Shank3 N-terminus (residues 1-339) P141A, mRFP-tagged (Q9JLU4, form named): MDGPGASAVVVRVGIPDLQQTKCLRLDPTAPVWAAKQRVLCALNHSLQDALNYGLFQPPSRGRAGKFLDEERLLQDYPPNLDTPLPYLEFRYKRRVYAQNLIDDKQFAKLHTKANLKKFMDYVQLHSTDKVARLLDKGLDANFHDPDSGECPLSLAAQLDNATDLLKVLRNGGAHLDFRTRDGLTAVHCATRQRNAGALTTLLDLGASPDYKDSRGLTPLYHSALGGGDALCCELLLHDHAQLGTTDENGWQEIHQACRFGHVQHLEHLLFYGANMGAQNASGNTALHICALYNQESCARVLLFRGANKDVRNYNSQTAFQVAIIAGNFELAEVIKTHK
UniProt P11275: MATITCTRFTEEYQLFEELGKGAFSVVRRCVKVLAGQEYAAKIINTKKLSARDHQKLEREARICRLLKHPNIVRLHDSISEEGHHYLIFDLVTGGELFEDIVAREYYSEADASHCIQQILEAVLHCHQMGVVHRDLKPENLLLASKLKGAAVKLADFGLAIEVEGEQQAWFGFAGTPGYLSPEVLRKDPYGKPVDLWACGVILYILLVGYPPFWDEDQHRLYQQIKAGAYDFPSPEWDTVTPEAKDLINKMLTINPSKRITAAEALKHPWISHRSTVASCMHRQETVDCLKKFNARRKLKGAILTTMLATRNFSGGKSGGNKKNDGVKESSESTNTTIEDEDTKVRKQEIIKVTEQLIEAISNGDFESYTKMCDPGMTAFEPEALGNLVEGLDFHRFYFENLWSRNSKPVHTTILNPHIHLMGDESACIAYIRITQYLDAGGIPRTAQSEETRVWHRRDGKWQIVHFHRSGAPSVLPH
UniProt P62834: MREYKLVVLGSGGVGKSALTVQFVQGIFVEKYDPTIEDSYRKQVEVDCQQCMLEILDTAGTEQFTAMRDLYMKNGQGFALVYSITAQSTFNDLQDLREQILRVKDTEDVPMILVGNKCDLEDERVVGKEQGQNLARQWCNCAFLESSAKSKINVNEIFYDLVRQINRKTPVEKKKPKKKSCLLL

Legend:
Assay in all cases: co-IP; mRFP-tagged Shank3 constructs coexpressed with the partner in 293T cells; lysis in IP buffer (50 mM Tris pH 8, 120 mM NaCl, 0.5% NP40, 1 mM EDTA); RFP-trap beads, five washes; Western blot of input and precipitate
[1] = molecular target: Shank3 N-terminus (SPN + Ank domains, residues 1-339), WT, mRFP-tagged (rat) (UniProt Q9JLU4)
[2] = molecular target: Shank3 N-terminus (residues 1-339) Q106P, mRFP-tagged (rat) (UniProt Q9JLU4)
[3] = molecular target: Shank3 N-terminus (residues 1-339) N52R, mRFP-tagged (rat) (UniProt Q9JLU4)
[4] = molecular target: Shank3 N-terminus (residues 1-339) Q317R, mRFP-tagged (rat) (UniProt Q9JLU4)
[5] = molecular target: Shank3 N-terminus (residues 1-339) L68P, mRFP-tagged (rat) (UniProt Q9JLU4)
[6] = molecular target: Shank3 N-terminus (residues 1-339) G250C, mRFP-tagged (rat) (UniProt Q9JLU4)
[7] = molecular target: Shank3 N-terminus (residues 1-339) T337S, mRFP-tagged (rat) (UniProt Q9JLU4)
[8] = molecular target: Shank3 N-terminus (residues 1-339) Q256H, mRFP-tagged (rat) (UniProt Q9JLU4)
[9] = molecular target: Shank3 N-terminus (residues 1-339) L270M, mRFP-tagged (rat) (UniProt Q9JLU4)
[10] = molecular target: Shank3 N-terminus (residues 1-339) Y272C, mRFP-tagged (rat) (UniProt Q9JLU4)
[11] = molecular target: Shank3 N-terminus (residues 1-339) D69G, mRFP-tagged (rat) (UniProt Q9JLU4)
[12] = molecular target: Shank3 N-terminus (residues 1-339) P141A, mRFP-tagged (rat) (UniProt Q9JLU4)
[13] = molecular target: Shank3 N-terminus (SPN + Ank domains, residues 1-339), WT, mRFP-tagged (rat) (UniProt Q9JLU4); remark: listed apart in the source
[14] = molecular target: Shank3 N-terminus (residues 1-339) D69G, mRFP-tagged (rat) (UniProt Q9JLU4); remark: listed apart in the source

binding [1]: binds | binding [2]: binds | binding [3]: no binding
Molecule: α-subunit of the calcium/calmodulin dependent kinase II, T7-tagged (from UniProt P11275 1-478) (enzyme)

binding [4]: binds | binding [1]: binds | binding [5]: no binding | binding [6]: binds | binding [7]: binds | binding [8]: binds | binding [2]: binds | binding [9]: binds | binding [10]: binds | binding [11]: binds | binding [12]: binds
Molecule: Rap1a G12V, GFP-tagged (constitutively active) (from UniProt P62834 1-184)

binding [13]: binds | binding [14]: binds
B1: δ-catenin, GFP-tagged (protein, UniProt O35927 1-1247)
chain: MFARKQSGAAPFGAMPVPDQPPSASEKNSSLSPGLNTSNGDGSETETTSAILASVKEQELQFERLTRELEAERQIVASQLERCKLGSETGSMSSISSAGEQFHWQTQDGQKDIEDELTTGLELVDSCIRSLQESGILDPQDYSTSERPSLLSQSALQLNSKPEGSFQYPASYHSNQTLALGDTAPSQLPARSTQARAAGQSFSQGTTGRAGHLAGSEPAPPPPPPREPFAPSLGSAFHLPDAPPAAAALYYSSSTLPAPPRGGSPLTTTQGGSPTKLQRGGSAPEGAAYAAPRGSSPKQSPSRLAKSYSTSSPINIVVSSAGLSPIRVTSPPTVQSTISSSPIHQLSSTIGTYATLSPTKRLVHASEQYSKHSQELYATATLQRPGSLAAGSRASYSSQHGHLAPELRALQSPEHHIDPIYEDRVYQKPPMRSLSQSQGDPLPPAHTGTFRTSTAPSSPGVDSVPLQRTGSQHGPQNAAAATFQRASYAAGPASNYADPYRQLQYCASVDSPYSKSGPALPPEGTLARSPSIDSIQKDPREFGWRDPELPEVIQMLQHQFPSVQSNAAAYLQHLCFGDNKIKAEIRRQGGIQLLVDLLDHRMTEVHRSACGALRNLVYGKANDDNKIALKNCGGIPALVRLLRKTTDLEIRELVTGVLWNLSSCDALKMPIIQDALAVLTNAVIIPHSGWENSPLQDDRKIQLHSSQVLRNATGCLRNVSSAGEEARRRMRECDGLTDALLYVIQSALGSSEIDSKTVENCVCILRNLSYRLAAETSQGQHMGTDELDGLLCGETNGKDTESSGCWGKKKKKKKSQDQWDGVGPLPDCAEPPKGIQMLWHPSIVKPYLTLLSECSNPDTLEGAAGALQNLAAGSWKGWAEDVAGMAYALRSLPEGAPCLPQWSVYIRAAVRKEKGLPILVELLRIDNDRVVCAVATALRNMALDVRNKELIGKYAMRDLVHRLPGGNNSNNSGSKAMSDDTVTAVCCTLHEVITKNMENAKALRDAGGIEKLVGISKSKGDKHSPKVVKAASQVLNSMWQYRDLRSLYKKDGWSQYHFVASSSTIERDRQRPYSSSRTPSISPVRVSPNNRSASAPASPREMISLKERKTDYESAGNNATYHGTKGEHTSRKDTMTAQNTGVSTLYRNSYGAPAEDIKQNQVSTQPVPQEPSRKDYETYQPFPNSTRNYDESFFEDQVHHRPPASEYTMHLGLKSTGNYVDFYSAARPYSELNYETSHYPASPDSWV
